From PubChem BioAssay AID504339 (National Center for Advancing Translational Sciences (NCATS), 2011)
The campaign covered roughly 390,000 compounds. About 17,000 (4.4%) were called active. The shares of active, inactive and inconclusive entries below differ from those in the screen. Calls come from the whole dose curve; as a rule, active = well fitted inhibition curve with a large enough effect; inconclusive = small, poorly fitted or top-dose-only effect; inactive = no such curve, though single readings can be large or run the other way. Where the call is inconclusive, the potency comes from a doubtful curve fit.

molecular target: Lysine-specific demethylase 4A (Homo sapiens) (UniProt O75164); assay: qHTS Assay for Inhibitors of JMJD2A-Tudor Domain; details: AlphaScreen JMJD2A-Tudor / H3K4me3 peptide binding; activity change, negative = inhibition: at 114 µM (top of the series); note: nearly all actives have a fitted effect of over 50% in size
% is set by controls: 0 for no effect and ±100 for the full control effect; potency is the fitted concentration of half-maximal effect; tags give direction and shape of the fitted curve.

Chain of UniProt O75164 (O75164 whole entry, looked up, the tested form may be a part): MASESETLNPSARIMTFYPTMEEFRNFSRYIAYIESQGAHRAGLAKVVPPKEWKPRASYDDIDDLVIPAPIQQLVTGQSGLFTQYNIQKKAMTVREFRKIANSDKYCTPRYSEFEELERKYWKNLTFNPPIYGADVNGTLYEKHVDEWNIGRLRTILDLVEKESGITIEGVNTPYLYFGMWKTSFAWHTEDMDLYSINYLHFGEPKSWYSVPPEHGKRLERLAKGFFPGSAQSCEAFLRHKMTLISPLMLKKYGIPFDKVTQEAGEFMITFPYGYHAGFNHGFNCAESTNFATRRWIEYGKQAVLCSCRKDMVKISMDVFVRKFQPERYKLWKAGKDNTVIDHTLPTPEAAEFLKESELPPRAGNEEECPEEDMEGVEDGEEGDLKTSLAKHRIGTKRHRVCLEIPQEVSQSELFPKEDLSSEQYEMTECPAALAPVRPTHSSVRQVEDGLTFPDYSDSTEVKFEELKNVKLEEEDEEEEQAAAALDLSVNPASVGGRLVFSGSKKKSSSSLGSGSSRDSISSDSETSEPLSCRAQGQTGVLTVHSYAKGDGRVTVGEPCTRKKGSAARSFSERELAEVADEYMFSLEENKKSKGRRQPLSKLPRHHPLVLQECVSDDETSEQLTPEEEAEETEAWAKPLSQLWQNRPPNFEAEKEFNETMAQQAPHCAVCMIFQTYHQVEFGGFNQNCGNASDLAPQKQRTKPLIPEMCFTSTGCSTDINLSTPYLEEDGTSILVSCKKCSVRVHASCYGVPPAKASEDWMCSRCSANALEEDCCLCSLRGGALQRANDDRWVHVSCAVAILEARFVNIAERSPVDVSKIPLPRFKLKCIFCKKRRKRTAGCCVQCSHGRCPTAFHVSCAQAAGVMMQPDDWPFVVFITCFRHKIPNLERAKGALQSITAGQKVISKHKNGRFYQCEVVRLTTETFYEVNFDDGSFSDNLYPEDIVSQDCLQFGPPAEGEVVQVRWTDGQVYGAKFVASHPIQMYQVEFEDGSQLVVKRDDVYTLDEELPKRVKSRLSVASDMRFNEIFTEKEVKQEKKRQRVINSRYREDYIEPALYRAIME

Row | SMILES | activity change, negative = inhibition | Potency
1 | N#Cc1cc(Sc2ccccn2)c([N+](=O)[O-])cc1C#N | inactive: -4.14% | –
2 | COc1ccc(Nc2nc(N)nc(CSC(=S)N3CCN(c4ccccc4)CC3)n2)cc1 | – | inconclusive: 5.62 µM [inhibitor, full curve, poor fit]
3 | COc1ccc(Cn2c(O)c(/C=N/NC(=O)c3cccnc3)c3ccccc3c2=O)cc1 | – | inconclusive: 79.4 µM [inhibitor, partial curve, poor fit]
4 | COc1ccc(O)c(/C=N/Nc2nc3ccccc3[nH]2)c1 | inactive: -2.1% | –
5 | O=C(c1ccccc1)N1CCN(c2ccc([N+](=O)[O-])c(NCc3cccnc3)c2)CC1 | – | inconclusive: 56.2 µM [inhibitor, partial curve]
6 | Cc1ccc(NC2CCCN(C(=O)CCC(=O)c3ccccc3)C2)cc1C (stereo not given) | – | inconclusive: 79.4 µM [inhibitor, partial curve]
7 | Cn1c(=O)[nH]c(=O)c2c1[nH]c(=S)n2CCCc1ccccc1 | – | active: 3.16 µM
8 | COc1ccc([C@H]2C=C(C(=O)O)O[C@@H](OCCCCO)C2)cc1 | – | active: 56.2 µM
9 | CC1=CC2=NC(=O)/C(=C/c3cccn3Cc3ccccc3)C(=N)N2O1 | – | inconclusive: 44.7 µM [inhibitor, partial curve]
10 | Cc1cccc(C(=O)n2c(=S)nc3ccccn32)c1 | inactive: -16.4% | –
11 | COc1ccc(CN2CCCCC2c2cccnc2)c(OC)c1C (stereo not given) | inactive: -32.5% | –
12 | COc1ccccc1N(O)C1CC(=O)N(c2ccc(Br)cc2)C1=O (stereo not given) | – | active: 25.1 µM
13 | CCOC(=O)C1CCN(c2c(-c3ccccc3)c3cc(Cl)ccc3[nH]c2=O)CC1 | – | inconclusive: 100 µM [inhibitor, partial curve, poor fit]
14 | O=C(Cn1c(C(F)(F)F)nc2ccccc21)Oc1cccc(C(F)(F)F)c1 | inactive: 20.4% | –
15 | CSc1ccc(CCNC(=O)c2cc3c(-c4ccccc4F)nn(C)c3s2)cc1 | inactive: -28.1% | –
16 | CCOC(=O)c1cccc(NC(=O)c2cc3cc4ccc(C)cc4nc3s2)c1 | – | inconclusive: 20 µM [inhibitor, full curve]
17 | COCCCN=Cc1c(-c2ccccc2)[nH]n(-c2nc3ccccc3s2)c1=O | – | inconclusive: 31.6 µM [inhibitor, partial curve]
18 | C[C@H]1CN([C@@H](C)CO)C(=O)c2cccc(NC(=O)Nc3ccc(C(F)(F)F)cc3)c2O[C@@H]1CN(C)S(=O)(=O)c1ccccc1 | – | inconclusive: 56.2 µM [inhibitor, partial curve]
19 | O=C(CCC(=O)N(CC(=O)NC1CCCC1)Cc1cccs1)Nc1nccs1 | inactive: -8.39% | –
20 | CCCCc1oc2ccccc2c1C(=O)c1cc(I)c(OCCN(CC)CC)c(I)c1 | – | inconclusive: 15.8 µM [inhibitor, full curve]
21 | CCCC(=O)Nc1ccc(Sc2ccc([N+](=O)[O-])cc2)cc1 | – | inconclusive: 56.2 µM [inhibitor, partial curve, poor fit]
22 | O=c1cc(Cc2ccccc2)[nH]c(=S)[nH]1 | – | inconclusive: 17.8 µM [inhibitor, partial curve]
23 | Cc1cc(C)cc(Nc2cc(C(=O)NCc3ccccc3)c3ccccc3n2)c1 | inactive: -4% | –

Row | SMILES | activity change, negative = inhibition | Potency
24 | C=CCn1c(=NC(=O)c2ccco2)sc2cc(C(=O)OC)ccc21 | – | inconclusive: 79.4 µM [inhibitor, partial curve]
25 | Cc1cc(C)c(NC(=O)C(C)n2nnc3sc(-c4ccccc4)cc3c2=O)c(C)c1 (stereo not given) | – | inconclusive: 89.1 µM [inhibitor, single point]
26 | O=C(N/C(=C/c1ccc(Br)cc1)C(=O)N1CCOCC1)c1ccco1 | inactive: 2.78% | –
27 | C#CCn1cc(/C=C2\NC(=O)NC2=O)c2ccccc21 | – | inconclusive: 35.5 µM [inhibitor, full curve]
28 | C=CCNC(=O)COc1coc(CN2CCN(Cc3ccccc3)CC2)cc1=O | – | inconclusive: 35.5 µM [inhibitor, single point]
29 | CN1CCN(CCCNC(=O)c2ccc3c(c2)N(Cc2ccc(F)cc2)CCS3)CC1 | – | inconclusive: 5.62 µM [inhibitor, full curve, poor fit]
30 | Fc1ccccc1Nc1nc(NCc2ccco2)nc(N2CCOCC2)n1 | – | inconclusive: 56.2 µM [inhibitor, single point]
31 | O=C(O)c1cccnc1 | – | inconclusive: 100 µM [inhibitor, single point]
32 | COc1cccc(CN2CCN(c3ncccn3)CC2)c1OC | – | active: 28.2 µM
33 | O=C(O)c1ccc2c(=O)[nH]c(CCl)nc2c1 | – | inconclusive: 35.5 µM [inhibitor, partial curve]
34 | Cn1c(C(=O)NC2CCCCCC2)cc2c(=O)n(C)c3ccccc3c21 | – | inconclusive: 56.2 µM [inhibitor, partial curve]
35 | CCOC(=O)c1cccc(NC(=O)N2CCC(CN3CCCCCC3)CC2)c1 | inactive: -17.8% | –
36 | CCC(=O)NNC(=O)CCC(=O)Nc1cccc(Cl)c1C | – | inconclusive: 3.55 µM [inhibitor, partial curve]
37 | Cc1c(Cl)c(C(=O)NC2C3CC4CC(C3)CC2C4)nn1C (stereo not given) | inactive: 0.741% | –
38 | O=C(O)c1cccc(N/N=C/c2cc(Br)cc(Br)c2O)c1 | – | inconclusive: 28.2 µM [inhibitor, single point]
39 | C=CCN1C(=O)/C(=c2\sc3nc(=O)c(Cc4ccc(OC)c(OC)c4)nn3c2=O)c2ccccc21 | – | inconclusive: 44.7 µM [inhibitor, partial curve]
40 | CCOC(=O)c1cc2c(ccn2C)n1CC(=O)N(Cc1ccccc1)c1ccccc1 | – | active: 25.1 µM
41 | O=C(Nc1ccc2oc(-c3cccc(Cl)c3Cl)nc2c1)c1cccc(Br)c1 | – | inconclusive: 89.1 µM [inhibitor, single point]
42 | Cc1cc(C)c(C(=O)CSC2=NC(N)=C(C#N)C3(CCCCC3)C2C(N)=O)cc1C (stereo not given) | – | inconclusive: 63.1 µM [inhibitor, partial curve, poor fit]
43 | COc1ccc(-c2cc(-c3ccc(OC)cc3)[nH]n2)cc1 | – | inconclusive: 100 µM [inhibitor, partial curve, poor fit]
44 | CC(=O)Oc1cccc(N2C(=O)c3ccc(C(=O)O)cc3C2=O)c1 | inactive: -11.9% | –
45 | Oc1ccc(C=NN=C2c3ccccc3-c3ccccc32)c(O)c1 | – | inconclusive: 15.8 µM [inhibitor, full curve]
